Data: PMC4336329 (PLoS ONE, 2015)
Out of some 310,000 compounds screened, about 2,200 (0.71%) showed an effect of 50% or more. The effect is printed as a negative number. The list shows a part of the results.

Molecular target: human ether-à-go-go-related gene (hERG) potassium channel (human, UniProt Q12809)
Test: primary screen, population patch clamp on CHO cells stably expressing hERG

human ether-à-go-go-related gene (hERG) potassium channel, sequence (Q12809 whole entry, looked up): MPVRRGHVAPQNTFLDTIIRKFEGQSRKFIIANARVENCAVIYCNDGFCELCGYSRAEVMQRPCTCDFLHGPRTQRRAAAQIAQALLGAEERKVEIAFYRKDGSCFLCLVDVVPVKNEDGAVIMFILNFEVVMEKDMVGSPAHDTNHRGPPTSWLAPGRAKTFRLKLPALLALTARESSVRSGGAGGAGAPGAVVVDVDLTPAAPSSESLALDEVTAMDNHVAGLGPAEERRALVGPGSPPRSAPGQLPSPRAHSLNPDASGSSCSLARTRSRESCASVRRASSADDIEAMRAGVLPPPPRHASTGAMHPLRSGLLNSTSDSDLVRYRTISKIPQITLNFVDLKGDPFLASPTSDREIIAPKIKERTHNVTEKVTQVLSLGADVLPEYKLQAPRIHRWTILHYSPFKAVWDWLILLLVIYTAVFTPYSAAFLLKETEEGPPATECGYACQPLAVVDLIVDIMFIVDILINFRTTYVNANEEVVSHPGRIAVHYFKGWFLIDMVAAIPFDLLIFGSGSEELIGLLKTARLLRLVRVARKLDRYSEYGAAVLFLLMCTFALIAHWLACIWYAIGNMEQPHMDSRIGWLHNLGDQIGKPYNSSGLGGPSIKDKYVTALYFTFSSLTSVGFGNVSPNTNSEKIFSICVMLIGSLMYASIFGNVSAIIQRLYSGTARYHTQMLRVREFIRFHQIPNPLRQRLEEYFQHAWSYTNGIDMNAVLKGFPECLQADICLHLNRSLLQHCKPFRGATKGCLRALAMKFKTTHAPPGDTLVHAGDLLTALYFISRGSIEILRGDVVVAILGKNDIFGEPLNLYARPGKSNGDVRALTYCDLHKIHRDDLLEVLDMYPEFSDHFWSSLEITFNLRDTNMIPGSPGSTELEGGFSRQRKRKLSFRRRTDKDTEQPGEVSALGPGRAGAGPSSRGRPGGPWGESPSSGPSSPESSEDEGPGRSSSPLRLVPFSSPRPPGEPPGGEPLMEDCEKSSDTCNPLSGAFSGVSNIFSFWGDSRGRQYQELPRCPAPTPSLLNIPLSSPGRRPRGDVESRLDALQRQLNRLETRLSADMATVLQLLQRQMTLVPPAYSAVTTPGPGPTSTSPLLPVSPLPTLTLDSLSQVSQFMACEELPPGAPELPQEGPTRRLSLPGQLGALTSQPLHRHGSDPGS

SMILES | hERG current change (%, negative = inhibition) at 1uM [%]
COc1ccc(N(CC(=O)NCCSCc2cccc(Cl)c2)S(C)(=O)=O)cc1 | 7.41
O=C(Nc1nnc(S(=O)(=O)N2CCOCC2)s1)c1ccccc1Br | 6.23
CSC(=O)NC(=O)NC(=O)c1ccc([N+](=O)[O-])cc1 | 11.4
COC(=O)C1=C(C)NC(=O)NC1c1ccc(-c2ccccc2Cl)o1 (stereo not shown) | 13.1
CCOc1ccc(OCCCC(=O)NC2=NCCS2)cc1 | 13.6
CCCc1cc(-c2nc(N)ncc2-c2csc(C)n2)c(O)cc1OC | 9.55
COc1ccc(CCNC(=O)c2nnn(-c3cc(C)cc(C)c3)c2N)cc1OC | 5.59
COc1cccc(C(C(=O)NC(C)(C)C)N(C(=O)CCC(=O)Nc2cc(C)on2)C2CC2)c1OC (stereo not shown) | 17.1
Cc1ccc(NC(=S)NNC(=O)c2nnn(-c3ccccc3)c2C)cc1 | 6.61
CN(C)CCCNCC(=O)c1c(-c2ccccc2)n(C)c2ccccc12.O=C(O)C(=O)O | 0.676
CC(=O)c1cccc(NC(=O)CCCNC(=O)c2ccc(Cl)cc2)c1 | 10.2
COc1ccc(Cc2nc3ccc(C(=O)NC(C)C)cc3o2)cc1 | 9.31
CC(C)(C)C(=O)N=C1SC2CS(=O)(=O)CC2N1c1ccc2c(c1)OCO2 (stereo not shown) | -5.69
O=C(NCc1ccc(F)cc1)C1CCCN(c2cnccn2)C1 (stereo not shown) | -22.7
COc1ccc(CNC(=O)CN2C(=O)NC(C)(c3cccc(Br)c3)C2=O)cc1 (stereo not shown) | 0.983
O=C(N1CCN(c2ccccc2F)CC1)C1(c2cccs2)CCOCC1 | 9.24
COC(=O)c1ccc(NC(=O)CC[NH+]2CCCCC2)cc1.[Cl-] | -2.55
COC(=O)[C@@]12CCCCN1[C@H](c1ccc(-c3ccc(F)cc3)cc1)[C@@H]1C(=O)N(C)C(=O)[C@@H]12.O=C(O)C(F)(F)F | -9.26
Cn1c(CN2CCCC2)nc2cc(NC(=O)Nc3ccccc3)ccc21 | 7.65
COc1ccc(C2C(C(=O)c3sc(C)nc3C)=C(O)C(=O)N2CCN(C)C)cc1OC (stereo not shown) | 17.4
CCC(OC(=O)c1cc2sccc2n1C)C(=O)NCc1ccco1 (stereo not shown) | -5.19
COc1ccc(CCNC(=O)CCC(=O)n2ncc3cc(C)ccc32)cc1OC | 6.89
CCOC(=O)c1oc2cc(O)ccc2c(=O)c1-c1ccccc1OC | 1.12
COc1ccc(NC(=O)c2ccc(COc3ccccc3Br)o2)cc1OC | 22.3
C/C(=N\NC(=O)c1nonc1N)c1cccs1 | 3.33
O=C(O)CCC(=O)N1CCN(c2ncccc2C(F)(F)F)CC1 | 11.6
COc1ccc(C(=O)NC(=S)Nc2ccc3[nH]c(=O)[nH]c3c2)c(OC)c1 | 16.5
COc1ccc(C(=O)NC(CC(C)C)C(=O)O)cc1 (stereo not shown) | 6.42

SMILES | hERG current change (%, negative = inhibition) at 1uM [%]
CCOc1ccc2nc(NC(=O)c3ccc(OC)c(S(=O)(=O)N4CCOCC4)c3)sc2c1 | -7.15
Cc1ccc([N+](=O)[O-])cc1S(=O)(=O)Nc1ccc(-c2ccc(N3CCCC3)nn2)cc1 | 8.17
O=C(NC(O)C(=O)c1ccccc1)c1ccc(F)cc1 (stereo not shown) | 7.88
CCCNC(=O)c1ccccc1NC(=O)C1=CSCCO1 | 17.7
O=[N+]([O-])c1ccccc1N/N=C\c1ccccc1Cl | 17
Cc1onc(-c2ccccc2)c1C(=O)N1CCN(S(=O)(=O)c2ccc(Cl)cc2)CC1 | -1.88
Cc1ccccc1C(=O)Nc1ccnn1C1CCN(Cc2cnn(C(C)C)c2)CC1 | -27.3
C=CCNCCCCOc1c(Cl)cc(C)cc1Br.O=C(O)C(=O)O | 3.62
CCCOc1ccc(-c2cn3ccccc3n2)cc1[N+](=O)[O-] | 1.87
O=C(CN(Cc1ccc2c(c1)OCO2)C(=O)CNS(=O)(=O)c1ccccc1)NCC1CCCO1 (stereo not shown) | 6.06
Cc1ccc(NC(=O)CSc2ccc(C(N)=O)cc2[N+](=O)[O-])cc1 | 10.2
O=C(NC1CCCCC1)C1CCN(S(=O)(=O)c2cccc3nonc23)CC1 | 11
Cc1cc(C)n(-c2ccc(-n3ccnc3)nn2)n1 | 1.33
O=C(c1ccc(Cl)c(Cl)c1)N1CCN(Cc2ccc3c(c2)OCO3)CC1 | 0.862
CN1CCN(CC(=O)Nc2c(C(=O)C3CC3)oc3ccccc23)CC1 | -16.9
COc1cc(C(c2sc3nc(C)nn3c2O)N2CC(C)CC(C)C2)cc(OC)c1OC (stereo not shown) | 14.7
Cc1cc(C(=O)CSc2n[nH]c(N)n2)c(C)n1-c1ccc(F)cc1 | 5.48
Cc1ccc[n+](CC(=O)c2ccc(Br)cc2)c1C.[Br-] | 10.7
CCOC(=O)C(C)Sc1nc(-c2ccccc2)nc2ccccc12 (stereo not shown) | 15.9
Cc1ccccc1OCC(=O)Nc1ccc2c(c1)COC2=O | 5.94
CNc1oc(-c2ccc(Cl)cc2)nc1P(=O)(c1ccccc1)c1ccccc1 | 8.15
O=C(NNC(=O)C1C2CCC(C2)C1C(=O)O)c1ccc(Cl)cc1 (stereo not shown) | 18.7
O=C(O)CC(NS(=O)(=O)c1cccc2nsnc12)c1ccc(F)cc1 (stereo not shown) | 9.14
CCc1nn(CC(=O)NCCCN(CC)Cc2ccccc2)c(=O)c2cc3sccc3n12 | -17.2
CC(C)(C)c1ccc(C(=O)OCC(=O)Nc2sc3c(c2C#N)CCC3)cc1 | -1.3
Cn1cnnc1SCCNS(=O)(=O)c1cccc([N+](=O)[O-])c1 | 0.611
Cc1cc2c3c(c1)C(C)CC(C)(C)N3C(=O)C2=C(C#N)C#N (stereo not shown) | 9.79
